Source: paper PMC8341711
No constants are given. Whether binding was seen depends on the method and setting. For some assays here: In cells and extracts the contact can be indirect. Some entries that bind do so weakly or less than the wild type.

Amino acid sequences for entries named in this document (tags omitted). A change or cut given only in a name is not applied to a line headed by its entry. Residues count along the entry.
UniProt P14780: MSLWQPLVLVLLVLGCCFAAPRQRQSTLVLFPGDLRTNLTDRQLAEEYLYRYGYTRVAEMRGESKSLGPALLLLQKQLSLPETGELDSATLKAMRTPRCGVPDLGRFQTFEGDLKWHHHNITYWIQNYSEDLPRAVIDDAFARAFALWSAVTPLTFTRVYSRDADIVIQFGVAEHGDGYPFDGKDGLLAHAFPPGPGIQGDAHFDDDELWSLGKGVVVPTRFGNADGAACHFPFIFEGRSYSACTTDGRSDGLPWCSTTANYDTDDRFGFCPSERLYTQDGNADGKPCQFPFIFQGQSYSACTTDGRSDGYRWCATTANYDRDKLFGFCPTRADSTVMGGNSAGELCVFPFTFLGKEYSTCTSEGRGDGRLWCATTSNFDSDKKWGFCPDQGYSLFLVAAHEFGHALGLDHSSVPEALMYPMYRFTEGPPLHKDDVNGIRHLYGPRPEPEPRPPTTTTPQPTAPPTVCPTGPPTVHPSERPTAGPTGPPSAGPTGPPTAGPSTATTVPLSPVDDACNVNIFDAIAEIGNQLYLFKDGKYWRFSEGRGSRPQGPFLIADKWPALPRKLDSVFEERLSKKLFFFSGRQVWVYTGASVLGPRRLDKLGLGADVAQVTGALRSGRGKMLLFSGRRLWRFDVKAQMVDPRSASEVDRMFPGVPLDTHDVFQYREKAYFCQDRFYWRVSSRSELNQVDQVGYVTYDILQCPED
Flag-MMP-9 D5 (1–511): residues 20-511 of P14780
Flag-MMP-9 D1 (106–707): residues 106-707 of P14780
Flag-MMP-9 D4 (106–511): residues 106-511 of P14780
Flag-MMP-9 D6 (106–440): residues 106-440 of P14780
Flag-MMP-9 D8 (106–397): residues 106-397 of P14780
Flag-MMP-9 D7 (106–233): residues 106-233 of P14780
Flag-MMP-9 D9 (223–440): residues 223-440 of P14780
Flag-MMP-9 D2 (440–707): residues 440-707 of P14780
Flag-MMP-9 D3 (512–707): residues 512-707 of P14780
UniProt Q07157: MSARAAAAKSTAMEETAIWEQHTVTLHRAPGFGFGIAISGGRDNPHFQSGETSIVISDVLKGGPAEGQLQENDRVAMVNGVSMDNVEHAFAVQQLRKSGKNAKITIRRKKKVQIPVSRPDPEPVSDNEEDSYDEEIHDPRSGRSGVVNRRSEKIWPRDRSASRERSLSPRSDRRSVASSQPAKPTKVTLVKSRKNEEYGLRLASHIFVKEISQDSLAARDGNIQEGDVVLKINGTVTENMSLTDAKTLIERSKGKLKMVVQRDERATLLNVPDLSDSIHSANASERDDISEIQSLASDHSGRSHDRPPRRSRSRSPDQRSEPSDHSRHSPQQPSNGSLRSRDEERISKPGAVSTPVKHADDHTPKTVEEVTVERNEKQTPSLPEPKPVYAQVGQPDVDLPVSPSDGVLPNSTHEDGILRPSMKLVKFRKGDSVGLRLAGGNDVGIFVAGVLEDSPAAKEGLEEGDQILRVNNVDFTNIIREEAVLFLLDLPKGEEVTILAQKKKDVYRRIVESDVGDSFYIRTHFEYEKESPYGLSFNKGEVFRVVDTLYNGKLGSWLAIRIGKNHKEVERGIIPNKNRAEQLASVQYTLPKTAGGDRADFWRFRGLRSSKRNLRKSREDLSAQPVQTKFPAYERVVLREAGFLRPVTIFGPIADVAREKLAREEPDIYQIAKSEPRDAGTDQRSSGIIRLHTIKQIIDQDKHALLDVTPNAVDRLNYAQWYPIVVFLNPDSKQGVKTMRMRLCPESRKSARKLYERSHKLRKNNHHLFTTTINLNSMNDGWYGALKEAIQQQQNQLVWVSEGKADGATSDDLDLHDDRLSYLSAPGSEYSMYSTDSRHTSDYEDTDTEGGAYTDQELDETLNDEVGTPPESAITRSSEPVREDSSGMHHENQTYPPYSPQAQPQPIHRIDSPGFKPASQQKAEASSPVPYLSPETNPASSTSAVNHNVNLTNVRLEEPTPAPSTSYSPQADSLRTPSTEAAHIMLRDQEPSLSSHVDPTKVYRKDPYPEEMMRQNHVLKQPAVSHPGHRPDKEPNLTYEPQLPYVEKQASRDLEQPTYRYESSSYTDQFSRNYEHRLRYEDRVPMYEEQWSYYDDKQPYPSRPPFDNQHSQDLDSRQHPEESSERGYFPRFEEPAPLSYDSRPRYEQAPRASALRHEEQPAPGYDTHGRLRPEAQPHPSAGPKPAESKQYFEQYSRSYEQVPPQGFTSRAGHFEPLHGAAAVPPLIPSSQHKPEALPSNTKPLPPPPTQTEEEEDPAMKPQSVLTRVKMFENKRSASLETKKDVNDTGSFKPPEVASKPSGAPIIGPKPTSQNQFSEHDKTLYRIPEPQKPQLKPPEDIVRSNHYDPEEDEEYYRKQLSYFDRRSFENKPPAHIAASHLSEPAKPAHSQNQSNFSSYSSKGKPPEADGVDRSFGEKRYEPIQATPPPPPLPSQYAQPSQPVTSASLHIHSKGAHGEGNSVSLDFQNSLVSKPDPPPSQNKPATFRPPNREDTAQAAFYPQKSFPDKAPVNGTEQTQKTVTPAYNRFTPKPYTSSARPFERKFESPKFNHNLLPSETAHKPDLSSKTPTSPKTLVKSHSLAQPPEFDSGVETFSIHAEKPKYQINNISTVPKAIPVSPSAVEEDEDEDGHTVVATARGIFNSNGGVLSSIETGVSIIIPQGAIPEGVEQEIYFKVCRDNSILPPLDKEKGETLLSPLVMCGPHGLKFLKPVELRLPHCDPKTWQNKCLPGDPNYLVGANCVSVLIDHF

Key:
BD-MMP-9 (human) = BD-MMP-9 (human) (UniProt P14780); assay: two-hybrid
[1] = target: HA-NS1 (DENV non-structural protein 1) (dengue virus 2 (DENV2)) (UniProt P14340); assay: co-IP
[2] = target: Flag-ZO-1 (Zona occludens protein-1) (UniProt Q07157); assay: co-IP
[3] = target: Flag-MMP-9 D9 (223–440) (human) (UniProt P14780); assay: co-IP
[4] = target: Flag-MMP-9 D6 (106–440) (human) (UniProt P14780); assay: co-IP
[5] = target: Flag-MMP-9 D5 (1–511) (human) (UniProt P14780); assay: co-IP
[6] = target: Flag-MMP-9 D4 (106–511) (human) (UniProt P14780); assay: co-IP
[7] = target: Flag-MMP-9 D3 (512–707) (human) (UniProt P14780); assay: co-IP
Flag-β-catenin = Flag-β-catenin (UniProt P35222); assay: co-IP
[8] = target: Flag-MMP-9 D8 (106–397) (human) (UniProt P14780); assay: co-IP
[9] = target: Flag-MMP-9 D1 (106–707) (human) (UniProt P14780); assay: co-IP
[10] = target: Flag-MMP-9 D7 (106–233) (human) (UniProt P14780); assay: co-IP
[11] = target: endogenous β-catenin (human (endogenous in HEK293T and HeLa)) (UniProt P35222); assay: co-IP
[12] = target: Flag-MMP-9 D2 (440–707) (human) (UniProt P14780); assay: co-IP

Substance: AD-NS1 (from UniProt P14340 776-1127)
- binding (BD-MMP-9 (human)): binds

Substance: AD-NS4A (from UniProt P14340 2094-2220)
- binding (BD-MMP-9 (human)): no binding

Substance: Flag-ZO-1 (Zona occludens protein-1) (from UniProt Q07157 1-1748)
- binding [1]: binds

Substance: Flag-β-catenin (from UniProt P35222 1-781)
- binding [1]: binds

Substance: HA-NS1 (DENV non-structural protein 1) (from UniProt P14340 776-1127)
- binding [2]: binds
- binding [3]: binds
- binding [4]: binds
- binding [5]: binds
- binding [6]: binds
- binding [7]: no binding
- binding (Flag-β-catenin): binds
- binding [8]: binds
- binding [9]: binds
- binding [10]: binds
- binding [11]: binds
- binding [12]: no binding

Substance: endogenous β-catenin (from UniProt P35222 1-781)
- binding [1]: binds
